According to PubChem BioAssay AID1508623 (National Center for Advancing Translational Sciences (NCATS), 2021):
Screen size: about 48,000 compounds; about 450 (0.94%) were called active. The shares of active, inactive and inconclusive entries below differ from those in the screen. Calls follow the shape of the dose curve; as a rule, active = well fitted inhibition curve with a large enough effect; inconclusive = small, poorly fitted or top-dose-only effect; inactive = no such curve, though single readings can be large or run the other way. A potency beside an inconclusive call is a rough fit, not a confirmed value.
Potency is read from the fitted curve at half-maximal effect; tags tell the direction and shape of the fitted curve.

Assay: Primary qHTS for Identification of Small Molecule Inhibitors of Huntingtin Promoter Activity; also: nearly all actives have a fitted effect of over 50% in size
Settings: HEK293 HTT promoter firefly luciferase reporter (activity 0% = vehicle and -100% = no light), 24 h; series mostly up to 57.5 µM
Summary of the method: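 Firefly luciferase readout (Dual-Glo, 10 min RT) after 24 h, 37 °C compound exposure (final up to 57.5 uM) of HEK293 reporter cells cultured 24 h beforehand; PTC124 at 50 uM final as control inhibitor; activity scaled vehicle 0%, zero RLU -100%.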
For `CN(CC(=O)Nc1ccc(OC(F)(F)F)cc1)S(=O)(=O)c1ccc2c(c1)CCC(=O)N2`, the Potency was inconclusive: 20 µM [inhibitor, partial curve, poor fit]. With `CCOC(=O)c1cc(-c2ccccc2)n(CCCC(=O)Nc2ccc(C)c(Cl)c2)c1C` the Potency was inconclusive: 22.4 µM [inhibitor, single point]. In the case of `CCc1ccc(NC(=O)Cn2c(=O)c3cccn3c3ccccc32)cc1`, the Potency is reported as inconclusive: 25.1 µM [inhibitor, partial curve]. With `CC(=O)c1ccc(N2CCN(C(=O)Nc3ccc(C)cc3)CC2)cc1` the Potency was inconclusive: 28.2 µM [inhibitor, single point]. For `COc1cc(C(=O)Nc2ccc3nc4n(c(=O)c3c2)CCCCC4)cc(OC)c1OC`, the Potency was “inactive”. With `COc1ccc(CNC(=O)c2cc3c(-c4ccccc4F)nn(C)c3s2)c(OC)c1` the Potency was inconclusive: 17.8 µM [inhibitor, partial curve, poor fit]. With `COc1cccc(NC(=O)Cn2cc(C(=O)C3CCCCC3)c3ccccc32)c1` the Potency was inconclusive: 31.6 µM [inhibitor, single point]. With `COc1cccc(CNC(=O)CN2C(=O)N(c3cc(C)ccc3C)S(=O)(=O)c3ccccc32)c1OC` the Potency was inconclusive: 31.6 µM [inhibitor, single point]. In the case of `O=C(Nc1ccc(-c2cc(C(F)(F)F)nn2-c2ccccc2)cc1)c1cccc(F)c1`, the Potency is reported as inconclusive: 15.8 µM [inhibitor, partial curve, poor fit]. With `CCN1CCC(N(Cc2cccc(OC)c2)C(=O)Nc2cccc(C(F)(F)F)c2)CC1` the Potency was “inactive”. With `O=C(CC1N=C2c3ccccc3N=C(SCc3ccc(Cl)cc3)N2C1=O)NCCc1ccccc1` (stereo not drawn) the Potency was inconclusive: 28.2 µM [inhibitor, single point]. In the case of `CCOc1ccc(C2c3c(-c4ccc(C)cc4)n[nH]c3C(=O)N2c2ccc(Cl)cc2)cc1` (stereo not drawn), the Potency is reported as inconclusive: 28.2 µM [inhibitor, single point]. With `Cc1ccc(F)c(NC(=O)Nc2ccc(-c3cccc4[nH]nc(N)c34)cc2)c1` the Potency was “inactive”. With `COc1cc(C=C2CCC/C(=C\c3ccc(O)c(OC)c3)C2=O)ccc1O` the Potency was inconclusive: 39.8 µM [inhibitor, single point]. For `COc1ccccc1NC(=O)c1cc(S(=O)(=O)N(C)C2CCCCC2)ccc1F`, the Potency was inconclusive: 39.8 µM [inhibitor, single point]. With `CC1CCCN(S(=O)(=O)c2cc3c(cc2Cl)NC(=O)CO3)C1` (stereo not drawn) the Potency was inconclusive: 15.8 µM [inhibitor, partial curve, poor fit]. In the case of `COc1ccc(-c2cc(=O)n3[nH]cnc3n2)cc1`, the Potency is reported as “inactive”. For `COc1ccccc1CNC(=O)CCn1c(=O)c2ccccc2n(CC(=O)Nc2ccc(C)cc2)c1=O`, the Potency was inconclusive: 35.5 µM [inhibitor, partial curve, poor fit]. With `Cn1nnnc1SCCCNCc1ccc(-c2ccc(Br)cc2)o1` the Potency was inconclusive: 12.6 µM [inhibitor, partial curve, poor fit]. With `Cc1ccc(OCC(=O)Nc2ccc(Cl)c(-c3nc4ncccc4o3)c2)cc1C` the Potency was “inactive”. With `COc1cc(C(=O)NCC(c2ccc(N(C)C)cc2)N2CCc3ccccc32)cc(OC)c1OC` (stereo not drawn) the Potency was “inactive”. With `O=C(CSc1ncc(CO)n1Cc1ccccc1)Nc1nc2ccccc2s1` the Potency was inconclusive: 39.8 µM [inhibitor, single point]. With `COc1cc(CN(C(=O)COc2ccc(Br)cc2)c2ccccn2)cc(OC)c1OC` the Potency was active: 31.6 µM. In the case of `CCC1=C(c2ccc(C)cc2)S(=O)(=O)N=C1N1CCC(C(=O)Nc2ccccc2C(=O)OC)CC1`, the Potency is reported as inconclusive: 25.1 µM [inhibitor, single point]. For `Cc1cccc(NC(=O)C2CCCN2S(=O)(=O)c2cccc3nsnc23)c1C` (stereo not drawn), the Potency was inconclusive: 7.94 µM [inhibitor, single point]. In the case of `CCOC(=O)c1ccc(NC(=O)CN2C(=O)C(C)(C)c3ccccc32)cc1`, the Potency is reported as inconclusive: 28.2 µM [inhibitor, partial curve, poor fit]. For `CC[C@H](CO)Nc1nc(NCc2ccccc2)c2ncn(C(C)C)c2n1`, the Potency was inconclusive: 24.3 µM [inhibitor, partial curve]. With `Cc1ccc(NC(=O)c2cccc(C(C)(C)C#N)c2)cc1Nc1ccc2ncn(C)c(=O)c2c1` the Potency was inconclusive: 30.6 µM [inhibitor, partial curve, poor fit]. For `COc1ccc(NS(=O)(=O)c2cc(-c3onc(C)c3C)ccc2C)c(OC)c1`, the Potency was inconclusive: 20 µM [inhibitor, partial curve, poor fit]. In the case of `CCC1CN(C(=O)N2CCC(C(=O)NCCCc3ccccc3)CC2)c2cc(C)ccc2O1` (stereo not drawn), the Potency is reported as inconclusive: 35.5 µM [inhibitor, single point]. With `CCCc1cnc2c(c1SCC(=O)Nc1ccc([N+](=O)[O-])cc1)c(=O)n(C)c(=O)n2C` the Potency was inconclusive: 2.24 µM [inhibitor, partial curve, poor fit]. For `CCOC(=O)c1ccccc1NC(=O)N(Cc1ccc(CC)cc1)Cc1cn[nH]c1-c1ccc(OC)cc1`, the Potency was inconclusive: 31.6 µM [inhibitor, single point]. In the case of `COc1ccc(-n2nc(C(=O)NCCc3ccc(Cl)cc3)c3c4ccccc4n(C)c3c2=O)cc1`, the Potency is reported as “inactive”. For `Cc1ccc(-c2cnc(C3CC3)o2)cc1S(=O)(=O)Nc1cccc(C#N)c1`, the Potency was inconclusive: 28.2 µM [inhibitor, partial curve, poor fit]. With `CN(Cc1ccccc1)C(=O)CSc1c2c(nc3ccc(Cl)cc13)CCCC2` the Potency was inconclusive: 35.5 µM [inhibitor, single point]. For `CC(C)NC(=O)CCSc1nc(-c2ccc3c(c2)OCO3)cc(C(F)(F)F)n1`, the Potency was inconclusive: 25.1 µM [inhibitor, partial curve]. For `O=C(Nc1ccc(F)c(Cl)c1)C1CCCN(S(=O)(=O)c2cccc3nsnc23)C1` (stereo not drawn), the Potency was inconclusive: 25.1 µM [inhibitor, single point]. In the case of `CCOc1ccccc1N(CC)C(=O)c1ccc2c(=O)n3c(nc2c1)CCCCC3`, the Potency is reported as inconclusive: 39.8 µM [inhibitor, single point]. In the case of `CCOc1ccc(CCNC(=O)CSCc2nc(-c3cccc(C)c3)oc2C)cc1OCC`, the Potency is reported as inconclusive: 28.2 µM [inhibitor, single point]. With `CC(C)N(Cc1ccccc1)S(=O)(=O)c1ccc(N2CCCCS2(=O)=O)cc1` the Potency was inconclusive: 25.1 µM [inhibitor, partial curve]. For `Cc1cc2nn(-c3ccccc3)nc2cc1NC(=O)Cc1ccc(Cl)cc1`, the Potency was “inactive”. For `CN(C)S(=O)(=O)c1ccc(C(=O)N(Cc2cccnc2)c2nc3c(F)cc(F)cc3s2)cc1`, the Potency was inconclusive: 17.8 µM [inhibitor, partial curve, poor fit]. For `CC(=O)N1CCc2c(sc3c2c(=O)n(CCc2ccccc2)c(=O)n3Cc2ccc(F)cc2)C1`, the Potency was inconclusive: 25.1 µM [inhibitor, single point]. For `Cc1ccc(Nc2ccc(N3CCN(C(=O)c4ccc([N+](=O)[O-])cc4Cl)CC3)nn2)cc1`, the Potency was inconclusive: 39.8 µM [inhibitor, single point]. For `CCc1ccccc1NC(=O)CCc1c(C)nc2cc(-c3ccccc3)nn2c1C`, the Potency was inconclusive: 15.8 µM [inhibitor, partial curve, poor fit]. For `Cc1nnc(N2CCN(C(=O)Nc3cc(F)ccc3F)CC2)c2nn(-c3ccc(Cl)cc3)c(C)c12`, the Potency was inconclusive: 28.2 µM [inhibitor, single point]. With `COc1ccc(-c2nc(CSCC(=O)N3CCN(c4ccccc4)CC3)c(C)o2)cc1` the Potency was inconclusive: 20 µM [inhibitor, partial curve, poor fit]. With `CC(=O)c1cccc(NS(=O)(=O)c2cccc(S(=O)(=O)c3ccc(Br)cc3)c2)c1` the Potency was active: 31.6 µM. In the case of `Cc1ccccc1NC(=O)c1ccc(N(Cc2ccccc2)S(C)(=O)=O)cc1`, the Potency is reported as inconclusive: 39.8 µM [inhibitor, single point]. In the case of `O=C(NCc1ccc(F)cc1)c1ccc2oc(=O)n(Cc3ccccc3)c2c1`, the Potency is reported as inconclusive: 31.6 µM [inhibitor, single point]. With `COc1cccc(CNC(=O)Cn2c(=O)oc3cc(S(=O)(=O)N4CCCCCC4)ccc32)c1` the Potency was inconclusive: 11.2 µM [inhibitor, partial curve, poor fit]. With `C[C@@H]1[C@H](C)CC[C@]2(C(=O)O)CC[C@]3(C)C(=CC[C@@H]4[C@@]5(C)CC[C@H](O)C(C)(C)[C@H]5CC[C@]43C)[C@@H]12` the Potency was “inactive”. For `Cc1ccccc1CNC(=O)C(=O)NCC(c1cccs1)S(=O)(=O)c1cccs1` (stereo not drawn), the Potency was inconclusive: 39.8 µM [inhibitor, partial curve, poor fit]. For `CCC(=O)Nc1cccc(-c2nc3cc(C)ccc3o2)c1`, the Potency was “inactive”. With `COc1ccc(N2CCN(C(=O)C3CCN(c4nc5ccc(C)cc5[nH]4)CC3)CC2)cc1` the Potency was inconclusive: 20 µM [inhibitor, partial curve, poor fit]. With `CCOC(=O)c1cnc(N2CCN(c3ccc(OC)cc3)CC2)c2ccccc12` the Potency was inconclusive: 28.2 µM [inhibitor, single point]. For `COc1ccc(-c2cc(=O)c3c(O)cc(O[C@@H]4O[C@H](CO[C@@H]5O[C@@H](C)[C@H](O)[C@@H](O)[C@@H]5O)[C@@H](O)[C@H](O)[C@@H]4O)cc3o2)cc1O`, the Potency was inconclusive: 24.3 µM [inhibitor, single point]. In the case of `COc1ccccc1NC(=O)CSc1nc2c(oc3ccccc32)c(=O)n1Cc1ccco1`, the Potency is reported as “inactive”.
